From PubChem BioAssay AID624296 (National Center for Advancing Translational Sciences (NCATS), 2012)
“And” between values parts separate entries of the source, which are not always exact repeats. Identical values can stand only once. About 9,900 (2.8%) of roughly 350,000 compounds were called active. The inconclusive results got no clear call from the source; some entries with a clear call stand among them for comparison. Calls follow the shape of the dose curve; as a rule, active = well fitted activation curve with a large enough effect; inconclusive = small, poorly fitted or top-dose-only effect; inactive = no such curve, though single readings can be large or run the other way. Potencies beside an inconclusive call are fits to weak or partial responses and may not hold up.

Assay: A quantitative high throughput screen for small molecules that induce DNA re-replication in MCF 10a normal breast cells. Also: nearly all actives have a fitted effect of over 50% in size. As to activity, positive = re-replication: % of control where 0% means no effect.
Conditions: MCF 10A DNA re-replication, Hoechst nuclear intensity, 48 h; activity, positive = re-replication: at 46.1 µM (top of the series)
Potency is read from the fitted curve at half-maximal effect; tags tell the direction and shape of the fitted curve.

SMILES	activity, positive = re-replication	Potency
N#CCCn1c2ccccc2c2nc3ccccc3nc21	inactive: 15.8%	–
CN1C(=O)/C(=C/c2ccco2)SC1=Nc1cccc(C(=O)O)c1	–	inconclusive: 18.4 µM [activator, partial curve, poor fit]
Cc1cc(C(=O)NC2CCCc3c2cnn3-c2ccc(C(C)(C)C)cc2)nn1C (centres undefined)	–	inconclusive: 8.2 µM [activator, partial curve, poor fit]
Cc1ccc(-n2c(C)cc(C(=S)N3CCOCC3)c2C)cc1C	inactive: -0.977%	–
Clc1ccc(N2CCN(Cc3ccco3)CC2)cc1	–	inconclusive: 6.51 µM [activator, partial curve, poor fit]
COC(=O)CSc1nnc2n(-c3ccc(OC)cc3)c(=O)c3c4c(sc3n12)CCCCC4	inactive: 10.3%	–
Clc1cccc(OCCCn2ccnc2)c1	inactive: -0.93%	–
COCOc1ccc(C=O)c(O)c1	–	inconclusive: 4.61 µM [activator, single point]
Cc1ccc(S(=O)(=O)Nc2ccc(-c3nc4ccc(C)cc4s3)cc2)cc1	–	active: 23.1 µM
COc1ccc(N2CCN(Cc3nc4scc(-c5cccs5)c4c(=O)[nH]3)CC2)cc1	inactive: 0.125%	–
C=CCSc1nnc(NC(=O)c2nc(SCC)ncc2Cl)s1	–	inconclusive: 2.91 µM [activator, partial curve, poor fit]
CN1CCN(C2Cc3ccccc3Sc3ccc(Cl)cc32)CC1 (centres undefined)	–	inconclusive: 33.5 µM [activator, single point] and inconclusive: 18.4 µM [activator, single point]
C=C(C)COc1ccc(-c2nc(N)ncc2-c2ccccc2OC)c(O)c1	–	inconclusive: 20.6 µM [activator, single point]
CCOc1ccc(C(=O)C(CN2CCOCC2)c2ccccc2)cc1 (centres undefined)	–	active: 7.31 µM
CC(C)Cn1c(SC(C)C(=O)NCC2CCCO2)nc2ccc(Cl)cc2c1=O (centres undefined)	inactive: 7.28%	–
COc1ccc(/C=N/Nc2nc(N3CCCC3)nc(N3CCCC3)n2)cc1	–	inconclusive: 1.84 µM [activator, partial curve, poor fit]
CC1(C)CC(=O)C=C(NCc2cccc(C(F)(F)F)c2)C1	inactive: -5.25%	–
COc1cc(C(C(=O)NC2CCCC2)N(C(=O)c2snc(C(N)=O)c2N)c2ccccc2)cc(OC)c1OC (centres undefined)	–	inconclusive: 18.4 µM [activator, partial curve, poor fit]
COC(=O)c1cccc(C23CC4(C2)[C@H](CN(Cc2cccnc2)[C@@H]4c2ccccc2)C3c2ccc(Cl)nc2)c1 (some centres undefined)	–	inconclusive: 20.6 µM [activator, partial curve, poor fit]
